Consider 51 compounds from publication PMC6919601, “Identification of Plasmodium dipeptidyl aminopeptidase allosteric inhibitors by high throughput screening” (PLoS ONE, 2019).

The campaign covered roughly 110,000 compounds. About 230 (0.21%) showed an effect of 50% or more. The list shows a part of the results.
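Further: 30 min substrate incubation versus DMSO and 10 µM JCP410 controls.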

This experiment deals with DPAP1 (Plasmodium falciparum, UniProt Q8IIJ9). The experiment is described as follows: primary screen, percent inhibition; read by cleavage of a fluorogenic dipeptide substrate; higher = more effect of the substance. Further details: species or system P. falciparum D10 trophozoite lysates; single well.
Sequence of DPAP1 (Q8IIJ9 whole entry, looked up): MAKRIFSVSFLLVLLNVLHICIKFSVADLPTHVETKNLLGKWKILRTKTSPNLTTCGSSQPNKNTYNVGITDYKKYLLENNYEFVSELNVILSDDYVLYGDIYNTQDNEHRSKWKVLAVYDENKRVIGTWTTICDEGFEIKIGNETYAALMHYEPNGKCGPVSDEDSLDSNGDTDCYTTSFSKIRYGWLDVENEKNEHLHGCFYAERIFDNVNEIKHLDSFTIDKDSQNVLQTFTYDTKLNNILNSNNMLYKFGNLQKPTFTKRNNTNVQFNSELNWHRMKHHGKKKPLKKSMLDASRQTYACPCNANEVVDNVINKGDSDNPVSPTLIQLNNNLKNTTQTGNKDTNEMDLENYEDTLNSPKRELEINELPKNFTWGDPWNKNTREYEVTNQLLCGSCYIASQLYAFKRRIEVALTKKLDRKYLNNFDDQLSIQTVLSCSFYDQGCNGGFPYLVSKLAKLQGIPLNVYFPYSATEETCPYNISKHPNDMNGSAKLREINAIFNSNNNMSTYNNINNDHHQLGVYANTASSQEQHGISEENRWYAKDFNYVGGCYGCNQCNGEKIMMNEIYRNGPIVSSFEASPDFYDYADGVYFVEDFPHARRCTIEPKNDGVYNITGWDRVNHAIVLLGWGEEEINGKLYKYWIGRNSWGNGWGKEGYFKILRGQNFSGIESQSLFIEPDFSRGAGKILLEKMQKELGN
For `Cc1ccccc1S(=O)(=O)Cc1ccc(C(=O)N2CCN(C)CC2)o1`, the “% Inhibition @ 10 uM” value is 1.93%.
For the compound `Cc1[nH]cnc1CN1CC=C(c2ccc(F)cc2)CC1`, the “% Inhibition @ 10 uM” value is given as -5.73%.
`O=C(NCc1cn2ccsc2n1)c1cccc(Cl)c1`: the “% Inhibition @ 10 uM” value was determined as 2.57%.
On to `CCOc1ccc(C(=O)Nc2ccccc2C)cc1`, for which the “% Inhibition @ 10 uM” value was determined as 0.147%.
As to `Cc1ccc(-n2ncc3c(O)nc(SCC(=O)N4CCCCC4)nc32)cc1C`, the “% Inhibition @ 10 uM” value is given as -0.00718%.
The result for `CS(=O)(=O)N1CCc2cc(C(=O)Nc3ccccc3)ccc21` reads 3.57%; that for `O=C(O)c1sc2cc(Cl)ccc2c1Cl`, -1.54%; that for `N=C1S/C(=C\c2c[nH]nc2-c2ccccc2)C(=O)N1c1nccs1`, 11.2%.
The result for `COc1ccc(C2C(C#N)=C(N)N(c3nc[nH]n3)C3=C2C(=O)CC(C)(C)C3)cc1` (stereo not drawn) reads 0.726%.
Take `CCCCc1ccc(-c2csc(/C(C#N)=C\C=C\c3ccccc3)n2)cc1`: the “% Inhibition @ 10 uM” value is -1.25%.
The result for `CN(C)c1nc(N)nc(COc2ccc(C3CCCCC3)cc2)n1` reads -5.96%.
As to `CN1CCN(C(=O)c2ccccc2NC(=O)c2ccccc2)CC1`, the “% Inhibition @ 10 uM” value came out at 1.08%.
In the case of `Cc1ccccc1Nc1ccccc1C(=O)N1CCCCC1` it was -3.39%; in that of `O=C1/C(=C/c2ccncc2)N2CCC1CC2`, -3.79%; in that of `Nc1c2c(nc3ccc(Br)cc13)N(C1CCCCC1)CC2`, -6.06%.
Consider `COc1ccc(CCNC2CC(=O)N(c3ccc(OC)cc3)C2=O)cc1` (stereo not drawn), for which the “% Inhibition @ 10 uM” value is recorded as 0.163%.
For the compound `O=C(NC(=S)N1CCCCCC1)c1cccnc1`, the “% Inhibition @ 10 uM” value was -4.96%.
In the case of `OCC1CCCCN1Cc1cccc(F)c1` (stereo not drawn) it was -2.58%.
In the case of `CC(C)(C)c1ccc(O)c(CNC2CCCCC2)c1` it was -6.42%; in that of `Cc1cc(C(F)F)n2nc(C(=O)NCc3ccccc3F)nc2n1`, -0.958%; in that of `Cc1ccc(C)c2c3c([nH]c12)-c1nonc1CC3`, -5.92%.
As for `Cn1c(SCC(N)=O)nc2c(oc3ccccc32)c1=O`, the “% Inhibition @ 10 uM” value is reported as -3%.
Consider `COc1cc(-c2noc(CN3CCCCC3C)n2)cc(OC)c1OC` (stereo not drawn), for which the “% Inhibition @ 10 uM” value is 4.28%.
In the case of `CCOC(=O)c1sc(NC(=O)COc2ccc(Cl)cc2)nc1C` it was -6.86%.
On to `O=[N+]([O-])c1ccc(S(=O)(=O)N2CCOCC2)cc1`, for which the “% Inhibition @ 10 uM” value is -0.0372%.
The result for `C=CCC(C)(CC=C)NS(=O)(=O)c1ccc(NC(C)=O)cc1` reads -10.2%; that for `Cc1nc2cc(S(=O)(=O)N3CCC(C(=O)NCCc4ccccc4)CC3)ccc2n1C1CCCC1`, -3.53%.
Consider `CCN(CC)C(=O)C1=C(C)N=C(S)NC1c1ccccc1OC` (stereo not drawn), for which the “% Inhibition @ 10 uM” value is on record as -4.35%.
For the compound `CCN1CCCC1CNC(=O)c1[nH]c2ccccc2c1Sc1ccccc1` (stereo not drawn), the “% Inhibition @ 10 uM” value was -4.43%.
For the compound `Cc1cc(Cl)ccc1OCCCC(=O)Nc1cccnc1`, the “% Inhibition @ 10 uM” value is listed as -5.19%.
In the case of `Cc1cc2ccccc2n1CCNC(=O)Cc1cccc2ccccc12` it was 1.39%; in that of `CN1CCN(C(=O)COc2ccc(Cl)cc2Cl)CC1`, -1.07%; in that of `O=C(c1ccc2c(c1)OCO2)N1CCN(CCN2C(=O)c3cccc4cccc(c34)C2=O)CC1`, -5.31%.
In the case of `COc1ccc(-c2cc(C(=O)Nc3cccnc3Cl)no2)cc1` it was -4.07%.
Consider `COC(=O)c1ccc(-c2ccco2)n1CC(=O)O`, for which the “% Inhibition @ 10 uM” value was found to be 3.24%.
The result for `COc1ccccc1S(=O)(=O)Cc1ccc(C(=O)NCCc2ccc(Cl)cc2)o1` reads -3.09%.
The result for `CCOC(=O)c1c(N)sc(C)c1C` reads -3.92%.
In the case of `COc1ccc(-c2cc(C(=O)Nc3ccccn3)c3ccccc3n2)cc1OC`, the “% Inhibition @ 10 uM” value amounted to 2.06%.
In the case of `O=C1c2oc3ccccc3c(=O)c2C(c2ccc(F)cc2)N1c1nncs1` (stereo not drawn) it was 2.1%; in that of `Cc1cccn2cc(CNS(=O)(=O)c3ccc(Br)cc3)nc12`, -3.51%; in that of `CCc1ccc2nc(N(CCN(C)C)C(=O)c3ccc(Cl)s3)sc2c1`, -12.3%.
For `O=C1NC(=S)S/C1=C\c1ccc(-c2ccc(Br)cc2)o1`, the “% Inhibition @ 10 uM” value is on record as -6.22%.
Consider `CCOc1ccccc1/C=C1\C(=O)N(Cc2ccccc2)C(C)=C1C(=O)OC`, for which the “% Inhibition @ 10 uM” value was 0.131%.
In the case of `CCOc1ccccc1C(=O)Nc1ccc(C)cc1`, the “% Inhibition @ 10 uM” value was -8.95%.
Consider `Oc1nc(Cn2nnc(-c3ccccc3Cl)n2)nc2ccccc12`, for which the “% Inhibition @ 10 uM” value is -5.72%.
With `Oc1cc(O)c2sc3nc(-c4cccnc4)cc(C(F)(F)F)c3c2n1`, the “% Inhibition @ 10 uM” value was found to be 4.97%.
In the case of `Cc1ccc(S(=O)(=O)N(Cc2ccc([N+](=O)[O-])cc2)C(C)(C)C)cc1` it was -5.5%.
Take `O=C(NCCCc1ccccc1)C1CCCN(S(=O)(=O)N2CCOCC2)C1` (stereo not drawn): the “% Inhibition @ 10 uM” value was -5.34%.
With `COc1ccc(-c2nnc(C3CCN(S(=O)(=O)c4ccc(F)c(C)c4)CC3)o2)cc1`, the “% Inhibition @ 10 uM” value is -1.08%.
Take `CCOc1ccccc1NC(=O)CN(c1ccc(Cl)cc1C)S(C)(=O)=O`: the “% Inhibition @ 10 uM” value was 1.92%.
The result for `CCOc1ccccc1CN1CCC(Cc2ccccc2)CC1` reads -6.47%.
